# Experimental data: PubChem BioAssay AID1030 (National Center for Advancing Translational Sciences (NCATS), 2008)
# Out of some 220,000 compounds screened, about 16,000 (7.3%) were called active. The inconclusive results got no clear call from the source; some entries with a clear call stand among them for comparison. The call rests on the fitted dose curve; in most records, active means well fitted inhibition curve with a large enough effect (not every such curve was filed as active); inconclusive means small, poorly fitted or top-dose-only effect, or another doubt; inactive means no such curve, though single readings can be large or run the other way. No potency is given beside an inconclusive call; the fits are too rough.
# Target: Aldehyde dehydrogenase 1A1 (Homo sapiens) (UniProt P00352)
# Assay: qHTS Assay for Inhibitors of Aldehyde Dehydrogenase 1 (ALDH1A1)
# Details: Purified ALDH1A1, NADH fluorescence, propionaldehyde substrate; series mostly up to 75.3 µM
# Potency means the concentration at half of the fitted maximal effect; tags describe the fitted curve by direction and shape.
# Sequence of UniProt P00352 (P00352 whole entry, looked up): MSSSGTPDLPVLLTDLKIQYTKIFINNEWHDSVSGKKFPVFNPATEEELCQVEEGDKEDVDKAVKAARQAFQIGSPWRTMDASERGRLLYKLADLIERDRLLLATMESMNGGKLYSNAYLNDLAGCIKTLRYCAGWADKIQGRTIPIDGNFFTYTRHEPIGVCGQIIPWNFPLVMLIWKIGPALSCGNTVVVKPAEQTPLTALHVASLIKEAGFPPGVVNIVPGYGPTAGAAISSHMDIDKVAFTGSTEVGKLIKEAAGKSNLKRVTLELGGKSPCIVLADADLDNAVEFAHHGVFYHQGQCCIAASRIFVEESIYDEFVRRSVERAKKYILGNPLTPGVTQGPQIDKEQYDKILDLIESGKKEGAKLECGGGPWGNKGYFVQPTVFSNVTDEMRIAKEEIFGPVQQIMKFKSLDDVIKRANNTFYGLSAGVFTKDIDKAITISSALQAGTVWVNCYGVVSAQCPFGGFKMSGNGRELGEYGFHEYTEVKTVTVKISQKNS
row,SMILES,Potency
1,CC12CCC(C(=O)Nc3ccccc3-n3cccc3)(CC1=O)C2(C)C (stereo unspecified),"inconclusive [inhibitor, full curve, poor fit]"
2,O=S(=O)(CCOc1ccccc1)c1nc2ccccc2[nH]1,active: 6.31 µM
3,Fc1ccccc1-n1cc(-c2ccccc2)[nH]c1=S,inactive
4,COc1ccc(S(=O)(=O)NCc2ccc(C)cc2)cc1,"inconclusive [inhibitor, partial curve]"
5,COc1cc(/C=C(\C#N)c2nc3ccccc3[nH]2)ccc1OC(=O)c1ccco1,"inconclusive [inhibitor, single point]"
6,O=c1cc(-c2ccc(O)cc2)oc2cc(O)c(C3OC(CO)C(O)C(O)C3O)c(O)c12 (stereo unspecified),"inconclusive [inhibitor, single point]"
7,CC[n+]1ccc(C[n+]2ccccc2)c2ccccc21,active: 18.9 µM
8,CC1(C(O)(C#CC[N+]2(C)CCCCC2)c2ccccc2)CCCC1 (stereo unspecified),inactive
9,Cc1nc2c(n1C1CCCCC1)C(=O)c1ccccc1C2=O,"inconclusive [inhibitor, partial curve]"
10,O=C1/C(=C/c2cccs2)CCC1C1CCCC1 (stereo unspecified),"inconclusive [inhibitor, single point]"
11,COc1cc(CNCCSc2nnnn2C)cc(Br)c1OCc1ccccc1F,"inconclusive [inhibitor, single point]"
12,CCOc1cc(CNCCO)cc(Br)c1OCc1ccccc1Cl,inactive
13,Cc1cccc(NC(=O)c2cc(NC(=O)c3ccco3)ccc2N2CCCCC2)c1,"inconclusive [inhibitor, partial curve]"
14,Cc1ccc(C(=O)Nc2ccnc(-c3cccnc3)n2)cc1,inactive
15,Cc1oc(-c2ccccc2)cc1C(=O)NC(Cc1c[nH]c2ccccc12)C(=O)O (stereo unspecified),"inconclusive [inhibitor, partial curve, poor fit]"
16,COc1ccc(C2CC(c3ccc(Br)cc3)=NN2C(=O)c2cccnc2)cc1 (stereo unspecified),inactive
17,CCOC(=O)c1[nH]c2cc3c(cc2c1NC(=O)CN1CCC2(CC1)OCCO2)OCO3,"inconclusive [inhibitor, partial curve]"
18,CCOC(=O)c1c(NC(=O)CSc2nnc(C)s2)sc2c1CCC(C)C2 (stereo unspecified),"inconclusive [inhibitor, single point]"
19,COc1ccc(-c2nc(N3CCCC3)[nH]c(=O)c2C#N)cc1,"inconclusive [inhibitor, single point]"
20,COc1ccc(-c2csc(N3N=C(C)C(C)C3=O)n2)cc1 (stereo unspecified),"inconclusive [inhibitor, single point]"
21,CC(=O)Nn1c(-c2ccccc2)cc2ccccc21,"inconclusive [inhibitor, partial curve]"
22,O=C(NCc1ccc2c(c1)OCO2)c1cccc(Cl)c1,inactive
23,O=S(=O)(c1ccc(Nc2ccc(-c3ccc4c(c3)OCCO4)nn2)cc1)N1CCCC1,"inconclusive [inhibitor, partial curve]"
24,CN(Cc1ccccc1)Cc1nc2scc(-c3ccccc3)c2c(=O)[nH]1,"inconclusive [inhibitor, partial curve]"
25,CC1CCN(Cc2nc3c(c(=O)n(C)c(=O)n3C)n2CCCc2ccccc2)CC1,active: 0.631 µM
26,COCCSc1nnc(NC(=O)Cc2cccs2)s1,inactive

row,SMILES,Potency
1,N#CC1=C(N)OC2=C(C(=O)CCC2)C1c1cccs1 (stereo unspecified),inactive
2,COc1ccc(/C=C/C(=O)c2ccc3c(c2)OCO3)c(OC)c1,"inconclusive [inhibitor, single point]"
3,COc1ccc2c(c1)oc(=O)c1ccccc12,"inconclusive [inhibitor, partial curve]"
4,C=CCn1c(SCC(=O)N2CCCC2)nc2cc(C(=O)NCC3CCCO3)ccc2c1=O (stereo unspecified),"inconclusive [inhibitor, single point]"
5,CCc1nc(N2CCCCC2C)c2oc3ccccc3c2n1 (stereo unspecified),"inconclusive [inhibitor, single point]"
6,CCCN(CCC)C(=O)C1CC(=O)OC12CCCCC2 (stereo unspecified),inactive
7,COc1ccc(CCNC(=O)C/C(C)=N/NC(=O)c2ccc(N)cc2)cc1OC,"inconclusive [inhibitor, single point]"
8,CCCCCCC(=O)Oc1cccc(N2C(=O)C3CCCCC3C2=O)c1 (stereo unspecified),"inconclusive [inhibitor, full curve]"
9,CCCCCCCCCCCCCCCC(=O)N[C@H](CN1CCOCC1)[C@H](O)c1ccccc1,inactive
10,N#CC1=C(SCC(=O)c2ccccc2)NC2=C(C(=O)CCC2)C1c1ccco1 (stereo unspecified),active: 8.91 µM
11,COc1ccc(OC)c(C2C(C(C)=O)=C(O)C(=O)N2CCN2CCOCC2)c1 (stereo unspecified),"inconclusive [inhibitor, single point]"
12,S=C(Nc1ccc2cn[nH]c2c1)Nc1ccc2cn[nH]c2c1,"inconclusive [inhibitor, single point]"
13,O=C(CCN1C(=O)C2CC=C(Cl)CC2C1=O)N1CCCCC1 (stereo unspecified),"inconclusive [inhibitor, single point]"
14,CCOc1ccc(NC(=O)CNC(=O)COc2ccccc2)cc1,inactive
15,O=C(CCS(=O)(=O)c1cccc2nonc12)N1CCCc2ccccc21,active: 11.2 µM
16,COc1ccc(C2=NN(CN3C(=O)C(=O)c4ccccc43)C(c3ccc(OC)cc3)C2)cc1 (stereo unspecified),active: 0.112 µM
17,CC/C(=N/Nc1ccccc1C)c1cnnc(SC)n1,active: 7.94 µM
18,O=c1c(/C=N/N2CCOCC2)c(C(F)(F)F)[nH]n1-c1ccccc1,inactive
19,Cc1cccc(C(=O)N2CCC(=O)N([C@H](COCc3ccccc3)Cc3ccccc3)CC2)c1,"inconclusive [inhibitor, single point]"
20,Cc1onc(-c2c(F)cccc2Cl)c1C(=O)N1CCN(c2ncccn2)CC1,inactive
21,COCCCN1C(=O)c2ccc(C(=O)OCC(=O)NCCc3ccccc3)cc2C1=O,"inconclusive [inhibitor, partial curve]"
22,NC(=O)CC[C@@H]1NC(=O)[C@H](CO)NC(=O)c2cc([N+](=O)[O-])cc(I)c2NCC[C@@H](C(N)=O)NC(=O)[C@H](Cc2ccc(O)cc2)NC1=O,active: 3.55 µM
23,Cc1ccc(CN(C)C(=O)c2ccccc2Oc2ccccc2)o1,active: 10 µM
24,CNC(=S)Nc1ccc(C)cc1,inactive
25,Cc1cc(C)nc(SCCS(=O)Cc2ccc(Cl)cc2)n1 (stereo unspecified),"inconclusive [inhibitor, single point]"
26,COc1ccc(NC(=S)N(CCc2c(C)[nH]c3ccc(C)cc23)Cc2ccco2)cc1,"inconclusive [inhibitor, single point]"

row,SMILES,Potency
1,N#CCCN(Cc1cccs1)C(=O)c1ccc(Cl)cc1,inactive
2,C=CCc1ccc(OCCOc2cccc3ccc(C)nc23)c(OC)c1,"inconclusive [inhibitor, partial curve]"
3,O=C1Cn2c(nc3ccccc32)N1c1cccc(C(F)(F)F)c1,inactive
4,CN1CCN(c2ccc(NC(=O)c3ccc(C#N)cc3F)cc2Cl)CC1,"inconclusive [inhibitor, single point]"
5,CN1C(=O)c2ccc(N(C)C)cc2C1=O,"inconclusive [inhibitor, single point]"
6,CCOC(=O)c1cc(OC(=O)c2cccnc2)n(-c2ccccc2)n1,"inconclusive [inhibitor, single point]"
7,Cc1cc(C)c2c3c(sc2n1)C(=O)N(Cc1ccccc1)CC(=O)N3,"inconclusive [inhibitor, single point]"
8,CC(=O)C1=C(O)C(=O)N(Cc2ccco2)C1c1ccccc1F (stereo unspecified),active: 10 µM
9,CCC1(CC)C(=O)NC(=O)NC1=NCCc1ccc(O)cc1,"inconclusive [inhibitor, single point]"
10,COCCOc1cc(N(CC(=O)N(C)C)S(=O)(=O)c2ccccc2)c(Cl)cc1Cl,inactive
11,CC1CN(c2nc(-c3ccccc3)nnc2-c2ccccc2)CC(C)O1 (stereo unspecified),"inconclusive [inhibitor, single point]"
12,Cc1ccc(NC(=S)N=Nc2c(O)[nH]c3ccccc23)cc1,inactive
13,O=C(CCc1ccccc1)N1CCN(c2ccc(F)cc2)CC1,inactive
14,Cn1nc(SCC(=O)O)sc1=S,inactive
15,CCOc1ccc(N(CC(=O)NCC2CCCO2)S(=O)(=O)c2ccc(SC)cc2)cc1 (stereo unspecified),active: 3.98 µM
16,Cc1nnc(NC(=O)CSc2ncnc3c2cnn3-c2ccccc2C)s1,inactive
17,Cc1cc(Cl)ccc1OC(C)C(=O)N1CCCN(C(=O)C(C)Oc2ccc(Cl)cc2C)CC1 (stereo unspecified),inactive
18,S=C(NCc1ccco1)N/N=C/c1ccc(Cl)cc1,inactive
19,O=C(NCc1ccc2c(c1)OCO2)C1CC(=O)N(C2CCCCCC2)C1 (stereo unspecified),"inconclusive [inhibitor, partial curve]"
20,CCOCCCNc1ccc(N2C(=O)C3CCCCC3C2=O)cc1[N+](=O)[O-] (stereo unspecified),"inconclusive [inhibitor, single point]"
21,CCC/C=C(\CCC)C(NS(=O)(=O)c1ccc(Cl)cc1)c1ccc(C(=O)OC)cc1 (stereo unspecified),"inconclusive [inhibitor, single point]"
22,COc1ccc(OC)c(S(=O)(=O)N2CCN(c3ccccn3)CC2)c1,"inconclusive [inhibitor, partial curve]"
23,CCOc1ccc(CNc2ccc(N3CCCC3)cc2)cc1,active: 7.94 µM
24,Cc1cccc(N(CC(=O)NCc2ccc3c(c2)OCO3)C(=O)CCC(=O)Nc2ccccn2)c1C,active: 28.2 µM
